US20230145835A1, “Modulators of Alpha-4-beta-7 Integrin and MAdCAM” (48HD Biopharma Inc., priority 2021, published 2023)
pIC50: −log10 of the molar value. Part of at least one peptide drawing is inferred or uncertain, most often the ends. Numbered stars: 1 amine (or outer) side, 2 acyl side, 3 side chain; on linkers, the order of the positions; unused ones are H or OH. Bridge positions count the residues as written; N and C are the ends. Peptide text beside a SMILES is read from it. X1 = O=C(C=NOCCCCCCOc1cc(C[*:2])cc(C[*:3])c1)[*:1]

Key:
rh-integrin α4β7/LPAM-1 [1] = target: T1, rh-integrin α4β7/LPAM-1 (Homo sapiens, UniProt P13612+P26010); assay: α4β7-MadCAM Competition ELISA (Example 4); format: binding; conditions: 4 μg/mL α4β7 coated, MAdCAM and peptide mixture, 28° C.
T1 sequence (P13612 34-977 limits assumed): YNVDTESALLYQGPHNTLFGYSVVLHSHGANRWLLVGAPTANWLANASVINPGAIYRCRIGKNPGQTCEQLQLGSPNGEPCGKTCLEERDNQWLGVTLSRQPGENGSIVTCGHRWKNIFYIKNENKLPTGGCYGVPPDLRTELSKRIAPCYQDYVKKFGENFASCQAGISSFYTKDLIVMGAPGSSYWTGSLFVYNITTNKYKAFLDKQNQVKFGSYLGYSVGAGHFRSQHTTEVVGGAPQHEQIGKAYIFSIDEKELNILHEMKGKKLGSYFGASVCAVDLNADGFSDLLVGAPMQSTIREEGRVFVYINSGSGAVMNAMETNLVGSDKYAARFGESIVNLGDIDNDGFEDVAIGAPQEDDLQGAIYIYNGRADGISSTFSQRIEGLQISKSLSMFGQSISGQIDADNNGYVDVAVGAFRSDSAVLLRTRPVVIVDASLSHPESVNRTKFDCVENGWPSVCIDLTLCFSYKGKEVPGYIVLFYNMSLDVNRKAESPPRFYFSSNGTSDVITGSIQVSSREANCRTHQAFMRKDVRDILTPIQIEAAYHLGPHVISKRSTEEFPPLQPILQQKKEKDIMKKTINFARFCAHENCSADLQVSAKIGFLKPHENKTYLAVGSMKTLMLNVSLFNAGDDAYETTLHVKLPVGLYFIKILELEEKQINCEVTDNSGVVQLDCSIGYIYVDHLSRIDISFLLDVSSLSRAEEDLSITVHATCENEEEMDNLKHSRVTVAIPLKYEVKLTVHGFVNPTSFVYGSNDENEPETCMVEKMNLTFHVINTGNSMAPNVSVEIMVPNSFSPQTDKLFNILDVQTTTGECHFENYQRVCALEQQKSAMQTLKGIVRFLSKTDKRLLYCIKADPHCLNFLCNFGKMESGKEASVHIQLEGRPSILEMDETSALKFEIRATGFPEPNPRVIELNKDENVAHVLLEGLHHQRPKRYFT
T1 sequence (P26010 20-723 limits assumed): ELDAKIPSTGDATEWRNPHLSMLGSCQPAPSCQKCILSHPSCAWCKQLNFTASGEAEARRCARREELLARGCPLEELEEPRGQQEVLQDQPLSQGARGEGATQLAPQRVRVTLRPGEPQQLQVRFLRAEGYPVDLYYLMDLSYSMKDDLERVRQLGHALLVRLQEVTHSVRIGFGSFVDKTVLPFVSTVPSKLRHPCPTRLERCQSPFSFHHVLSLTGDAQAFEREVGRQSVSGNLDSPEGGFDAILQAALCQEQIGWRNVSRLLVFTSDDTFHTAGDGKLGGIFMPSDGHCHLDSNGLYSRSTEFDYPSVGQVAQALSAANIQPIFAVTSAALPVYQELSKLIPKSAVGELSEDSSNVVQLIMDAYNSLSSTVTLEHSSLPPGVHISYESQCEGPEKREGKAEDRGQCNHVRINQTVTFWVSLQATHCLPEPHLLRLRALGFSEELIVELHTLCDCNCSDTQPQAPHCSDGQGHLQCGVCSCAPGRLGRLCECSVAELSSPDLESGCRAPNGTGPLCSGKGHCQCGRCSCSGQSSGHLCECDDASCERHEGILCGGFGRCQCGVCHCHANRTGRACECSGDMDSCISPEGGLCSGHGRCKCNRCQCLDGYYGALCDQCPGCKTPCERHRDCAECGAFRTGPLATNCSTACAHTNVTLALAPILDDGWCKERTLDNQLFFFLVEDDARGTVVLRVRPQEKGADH
Experimental: After washing with wash buffer, 200 μL assay buffer was added to each well and incubated for one hour at 28° C. After another wash with wash buffer, 100 μL of a MAdCAM and peptide mixture in assay buffer was added to each well and incubated for one hour at 28° C., followed by washing with wash buffer.

rh-integrin α4β7/LPAM-1 [2] = target: T1, rh-integrin α4β7/LPAM-1; assay: Competition Binding Assay (competition ELISA, Example 1); conditions: 8 μg/mL α4β7 coated, 1 μg/mL MAdCAM

| SMILES | pIC50 (rh-integrin α4β7/LPAM-1 [1]) | pIC50 (rh-integrin α4β7/LPAM-1 [2]) |
| --- | --- | --- |
| CC(C)[C@@H]1NC(=O)[C@H](CCCCN)NC(=O)[C@@H]2CCCN2C(=O)[C@@H]2CCCN2C(=O)[C@H](CC(=O)O)NC(=O)[C@H](Cc2c[nH]cn2)NC(=O)[C@@H]2CSCc3cc(cc(c3)OCCCCCCON=CC(=O)N[C@@H](CC(=O)O)C(=O)N2)CSC[C@@H](C(=O)O)NC1=O [SEQ ID NO: 61] (DCHDPPKVC-OH; linker N-2-9 via X1; C-terminus assumed) | 5.19 | 5.19 |
| CC(C)C[C@@H]1NC(=O)[C@H]([C@@H](C)O)NC(=O)[C@H](CC(=O)O)NC(=O)[C@H](CO)NC(=O)[C@H](CCCNC(=N)N)NC(=O)[C@@H](N)CSSC[C@@H](C(N)=O)NC1=O [SEQ ID NO: 69] (H-CRSDTLC-NH2; disulfide 1-7; N-terminus and C-terminus assumed) | 6.73 | 6.73 |
| CC(C)C[C@@H]1NC(=O)[C@@H]2CCCN2C(=O)[C@@H]2CSCc3cc(cc(c3)OCCCCCCON=CC(=O)N[C@@H](CCCCN)C(=O)N2)CSC[C@@H](C(=O)O)NC(=O)[C@H](CCC(=O)O)NC(=O)[C@H](Cc2ccc(O)cc2)NC(=O)[C@@H]2CCCN2C(=O)[C@H]([C@@H](C)O)NC(=O)[C@H](CC(=O)O)NC1=O [SEQ ID NO: 131] (KCPLDTPYEC-OH; linker N-2-10 via X1; C-terminus assumed) | 6.31 | 6.26 |
